Data: the supplement of paper PMC7826260
The other results are listed elsewhere or left out. Viral Rep nickase domains cut single-stranded DNA in vitro for 1 h at 37 °C with 3 µM enzyme; only the middle of the 90-letter strands is printed. Numbers give uncut DNA relative to the enzyme-free pool, as log2; more negative means more cut, near 0 not cut, and no call is made. Counts are relative to all reads; uncut strands gain when others are lost, and binding without cutting may add a little.

Legend:
Assay in all cases: uncleaved DNA left, log2 of reads against the no-enzyme library (log2 ratio); higher = less cleavage (more negative = more Rep cleavage of the k-mer); sequences stand for … in CTCGTCCG…ACCGGAGA
[1] = test system: T1, Rep nickase domain of Muscovy duck circovirus
T1 sequence (residues 1-111, tag not shown): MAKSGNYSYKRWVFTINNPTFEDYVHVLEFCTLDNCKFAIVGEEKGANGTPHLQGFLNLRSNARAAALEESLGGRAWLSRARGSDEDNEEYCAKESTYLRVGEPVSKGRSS
Procedure: (§1)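 A pool of 90-nt single-stranded DNAs with seven random bases just before the constant AC of the nick site (name = the seven bases) was cut by 3 µM recombinant His6-SUMO-tagged Rep nickase domain (300 nM DNA, 50 mM HEPES pH 8.0, 50 mM NaCl, 1 mM MnCl2, 1 h, 37 °C, three replicates). Uncut DNA was amplified and sequenced.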

[2] = test system: T2, Rep nickase domain of banana bunchy top virus
T2 sequence (residues 1-94, tag not shown): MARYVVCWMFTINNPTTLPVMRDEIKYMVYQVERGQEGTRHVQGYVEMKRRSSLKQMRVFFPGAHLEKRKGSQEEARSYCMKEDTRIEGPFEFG
Procedure: as §1

[3] = test system: T3, Rep nickase domain of cabbage leaf curl virus
T3 sequence (residues 1-116, tag not shown): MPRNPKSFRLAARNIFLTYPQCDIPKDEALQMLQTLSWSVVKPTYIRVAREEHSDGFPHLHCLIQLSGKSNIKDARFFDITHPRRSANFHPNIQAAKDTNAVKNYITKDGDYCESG
Procedure: as §1

[4] = test system: T4, Rep nickase domain of chickpea chlorotic dwarf virus
T4 sequence (residues 1-124, tag not shown): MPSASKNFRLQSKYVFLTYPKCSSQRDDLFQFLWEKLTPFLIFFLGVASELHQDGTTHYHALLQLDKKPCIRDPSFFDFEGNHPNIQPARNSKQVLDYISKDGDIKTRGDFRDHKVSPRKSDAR
Procedure: as §1

[5] = test system: T5, Rep nickase domain of faba bean necrotic yellows virus
T5 sequence (residues 1-98, tag not shown): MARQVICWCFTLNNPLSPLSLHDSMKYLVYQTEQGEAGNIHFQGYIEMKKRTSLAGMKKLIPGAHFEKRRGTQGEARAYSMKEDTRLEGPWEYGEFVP
Procedure: as §1

[6] = test system: T6, Rep nickase domain of maize striate mosaic virus
T6 sequence (residues 1-117, tag not shown): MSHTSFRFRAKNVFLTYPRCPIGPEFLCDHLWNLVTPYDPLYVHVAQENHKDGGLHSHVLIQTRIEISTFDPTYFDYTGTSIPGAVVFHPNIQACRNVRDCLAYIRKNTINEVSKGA
Procedure: as §1

[7] = test system: T7, Rep nickase domain of porcine circovirus 2
T7 sequence (residues 2-116, tag not shown): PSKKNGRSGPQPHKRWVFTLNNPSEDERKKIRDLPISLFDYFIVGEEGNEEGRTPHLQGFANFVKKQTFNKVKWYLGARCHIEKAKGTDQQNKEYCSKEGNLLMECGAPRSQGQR
Procedure: as §1

[8] = test system: T8, Rep nickase domain of tomato golden mosaic virus
T8 sequence (residues 1-124, tag not shown): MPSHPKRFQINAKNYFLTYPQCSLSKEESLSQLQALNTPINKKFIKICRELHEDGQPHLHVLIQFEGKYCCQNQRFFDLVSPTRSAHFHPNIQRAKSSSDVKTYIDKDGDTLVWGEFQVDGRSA
Procedure: as §1

[9] = test system: T9, Rep nickase domain of tomato yellow leaf curl virus
T9 sequence (residues 1-136, tag not shown): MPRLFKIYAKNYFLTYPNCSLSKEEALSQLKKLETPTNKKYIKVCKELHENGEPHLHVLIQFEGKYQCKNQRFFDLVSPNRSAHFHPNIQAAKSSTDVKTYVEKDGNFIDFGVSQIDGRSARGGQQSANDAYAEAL
Procedure: as §1

[10] = test system: T10, Rep nickase domain of wheat dwarf virus
T10 sequence (residues 1-137, tag not shown): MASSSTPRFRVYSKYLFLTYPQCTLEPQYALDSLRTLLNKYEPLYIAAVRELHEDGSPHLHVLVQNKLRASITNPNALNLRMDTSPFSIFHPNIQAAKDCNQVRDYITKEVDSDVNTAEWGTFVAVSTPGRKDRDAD
Procedure: as §1

Sequence | uncleaved DNA left (log2) [1] | uncleaved DNA left (log2) [2] | uncleaved DNA left (log2) [3] | uncleaved DNA left (log2) [4] | uncleaved DNA left (log2) [5] | uncleaved DNA left (log2) [6] | uncleaved DNA left (log2) [7] | uncleaved DNA left (log2) [8] | uncleaved DNA left (log2) [9] | uncleaved DNA left (log2) [10]
ACAAGGG | -0.0619 | -0.0335 | -0.711 | -0.327 | 0.0618 | -1.03 | 0.122 | 0.00969 | 0.0782 | 0.000501
CAATCAA | -0.082 | 0.151 | 0.169 | 0.513 | -0.137 | 0.15 | -0.0428 | 0.0769 | 0.14 | 0.112
GGTATTG | 0.0329 | 0.0597 | 0.0472 | 0.445 | 0.00449 | 0.182 | 0.0643 | -0.0307 | 0.000677 | 0.0171
AATTCTA | -1.72 | -0.573 | -0.192 | -2.7 | -0.0461 | -0.916 | -2.22 | -0.158 | -0.12 | -0.235
GGGACCA | -0.0504 | 0.122 | 0.894 | 2.11 | -0.0171 | 2.27 | 0.218 | -0.00875 | -0.0737 | 0.157
TTGCCAG | 0.0611 | -0.0112 | -0.771 | 0.0504 | 0.0747 | -0.925 | -0.239 | -0.0606 | 0.206 | -0.156
GCTGGTA | -0.0531 | 0.0834 | 0.116 | 0.501 | -0.0293 | 1.08 | 0.0549 | -0.0604 | 0.0574 | -0.0323
TCACAAG | 0.0487 | 0.0954 | -0.777 | -0.693 | 0.0471 | -1.38 | 0.138 | 0.0581 | 0.129 | -0.195
TTTCAGC | 0.0302 | 0.00627 | -0.334 | -0.839 | -0.0328 | -1.1 | 0.0217 | -0.0806 | -0.0342 | -0.0384
TGCATAG | 0.0874 | 0.0125 | -0.599 | -0.48 | 0.156 | -1.25 | 0.203 | 0.0555 | 0.0694 | 0.00465
TGCGGAA | -0.0433 | 0.00957 | -0.239 | -0.166 | 0.0689 | -0.5 | -0.00242 | -0.0112 | 0.0459 | -0.00258
CACGAAC | 0.0235 | -0.0578 | -0.105 | -0.128 | 0.0122 | -0.736 | 0.176 | -0.103 | -0.00245 | 0.0174
GGCCGGT | 0.133 | 0.0967 | 0.493 | 0.987 | -0.00301 | 1.57 | 0.149 | -0.0156 | 0.04 | 0.106
TTGAGCG | 0.0717 | -0.0386 | -0.873 | -0.278 | 0.0015 | -1.24 | 0.178 | 0.0429 | -0.011 | -0.0909
CTACAAA | -0.0763 | 0.00642 | -0.0917 | -1.21 | -0.0259 | -0.748 | 0.12 | 0.0117 | -0.102 | 0.07
CGAGGAC | 0.115 | 0.178 | 0.54 | 1.37 | 0.197 | 1.37 | 0.325 | 0.141 | 0.0642 | 0.0764

Sequence | uncleaved DNA left (log2) [1] | uncleaved DNA left (log2) [2] | uncleaved DNA left (log2) [3] | uncleaved DNA left (log2) [4] | uncleaved DNA left (log2) [5] | uncleaved DNA left (log2) [6] | uncleaved DNA left (log2) [7] | uncleaved DNA left (log2) [8] | uncleaved DNA left (log2) [9] | uncleaved DNA left (log2) [10]
AGCACTA | -0.0257 | 0.0126 | -0.00457 | 0.492 | -0.0169 | 1.41 | -0.0206 | 0.0969 | -0.00537 | 0.136
GCCACTA | 0.0572 | -0.00719 | 0.117 | -0.249 | 0.0833 | 0.166 | 0.0253 | -0.0156 | -0.0284 | 0.0463
AATGTAT | 0.00229 | -0.0213 | 0.19 | 0.491 | -0.0661 | 1.12 | -0.204 | 0.0288 | -0.0504 | -0.0053
ACATGTA | -0.0666 | -0.0357 | -0.334 | -1.09 | -0.0895 | -0.856 | -0.0817 | 0.0962 | -0.0529 | -0.0363
TTGCACA | -0.121 | 0.0678 | -0.26 | -0.811 | 0.0692 | -0.968 | 0.134 | 0.0147 | 0.13 | 0.00351
TGTTTGT | -0.412 | -0.0834 | 0.131 | -0.288 | 0.0393 | -0.56 | -0.459 | -0.0306 | -0.0203 | 0.0676
GGCCATT | -0.0139 | 0.0466 | 0.87 | 1.77 | -0.00652 | 2.16 | 0.145 | -0.106 | 0.17 | 0.154
ACCGGGG | -0.028 | 0.0307 | 0.76 | 1.25 | -0.025 | 2.11 | 0.163 | 0.164 | -0.526 | 0.0593
CCATGTG | 0.12 | 0.0185 | -0.614 | 0.26 | 0.0631 | -0.588 | 0.252 | -0.0423 | 0.16 | -0.0087
GTACATC | 0.0141 | 0.0729 | 0.473 | 1.17 | 0.0419 | 1.84 | 0.118 | -0.0103 | 0.0419 | 0.105
GTTTGGG | 0.0338 | -0.0797 | -0.466 | -0.415 | 0.0462 | -0.591 | 0.047 | 0.022 | 0.0641 | -0.121
TCGGCGG | 0.203 | 0.041 | 0.26 | 0.594 | 0.0318 | 0.883 | 0.199 | 0.177 | -0.027 | -0.0969
GGACCCG | 0.0227 | -0.0404 | 0.515 | 1.18 | -0.0578 | 0.578 | 0.0119 | 0.00668 | -0.0476 | 0.0482
CAAAACG | 0.0365 | -0.021 | -0.835 | -0.26 | 0.151 | -1.02 | 0.163 | 0.0464 | 0.0269 | 0.017
GAGATCA | 0.0297 | 0.158 | 0.573 | 0.902 | 0.0985 | 1.64 | -0.334 | 0.0747 | 0.0518 | 0.26
